Source: publication PMC4336329 (PLoS ONE, 2015)
Hit rate of the full screen: of about 310,000 compounds, about 14,000 (4.5%) showed an effect of 50% or more. The effect is printed as a negative number. The list shows a part of the results.

molecular target: human ether-à-go-go-related gene (hERG) potassium channel (human, UniProt Q12809); test: primary screen, population patch clamp on CHO cells stably expressing hERG
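Note: peak tail current of the secondary pulse compared with the same well before compound.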

human ether-à-go-go-related gene (hERG) potassium channel, sequence (Q12809 whole entry, looked up): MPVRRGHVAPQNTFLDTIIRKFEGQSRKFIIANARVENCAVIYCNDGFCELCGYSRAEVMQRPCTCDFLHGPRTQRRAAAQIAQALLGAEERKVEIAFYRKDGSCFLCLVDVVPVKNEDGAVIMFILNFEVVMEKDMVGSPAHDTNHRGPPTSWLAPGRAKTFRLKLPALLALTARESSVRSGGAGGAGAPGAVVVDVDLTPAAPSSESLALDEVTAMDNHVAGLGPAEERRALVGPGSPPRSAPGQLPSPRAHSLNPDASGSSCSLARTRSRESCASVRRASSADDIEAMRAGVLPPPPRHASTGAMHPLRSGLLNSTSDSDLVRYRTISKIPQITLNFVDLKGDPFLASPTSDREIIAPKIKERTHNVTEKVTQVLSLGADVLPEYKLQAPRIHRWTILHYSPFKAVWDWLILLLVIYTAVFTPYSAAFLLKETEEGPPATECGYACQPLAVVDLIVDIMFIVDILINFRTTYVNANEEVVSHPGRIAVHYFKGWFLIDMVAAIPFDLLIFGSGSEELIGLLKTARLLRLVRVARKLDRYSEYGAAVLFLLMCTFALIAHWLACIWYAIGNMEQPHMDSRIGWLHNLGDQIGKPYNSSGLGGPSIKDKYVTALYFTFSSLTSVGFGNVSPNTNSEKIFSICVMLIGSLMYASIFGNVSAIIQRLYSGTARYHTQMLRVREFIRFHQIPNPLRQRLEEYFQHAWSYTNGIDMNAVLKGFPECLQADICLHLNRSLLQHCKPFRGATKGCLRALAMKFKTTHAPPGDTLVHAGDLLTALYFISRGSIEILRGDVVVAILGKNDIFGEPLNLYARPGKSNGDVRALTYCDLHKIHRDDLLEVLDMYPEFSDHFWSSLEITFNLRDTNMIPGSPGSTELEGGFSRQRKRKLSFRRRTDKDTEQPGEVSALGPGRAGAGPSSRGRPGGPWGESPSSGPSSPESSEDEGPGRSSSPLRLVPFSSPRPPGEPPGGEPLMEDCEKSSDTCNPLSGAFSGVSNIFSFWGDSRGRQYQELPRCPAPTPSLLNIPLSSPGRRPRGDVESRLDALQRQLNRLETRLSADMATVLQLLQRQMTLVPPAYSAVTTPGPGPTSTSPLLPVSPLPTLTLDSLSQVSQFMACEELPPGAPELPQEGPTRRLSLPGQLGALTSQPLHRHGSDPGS

Question: `COc1cccc(CN2CCC(CO)(CC3CCCCO3)CC2)c1` (stereo not drawn) was tested. Which “hERG current change (%, negative = inhibition) at 10uM” value did it give?
Answer: 1.32%

Question: How did the “hERG current change (%, negative = inhibition) at 10uM” value turn out when `CCCCc1c(O)nc(SC2CC(=O)N(c3ccc(C(=O)OCC)cc3)C2=O)[nH]c1=O` (stereo not drawn) was run?
Answer: 0.334%

Question: With `O=C1CSC(c2cn(-c3ccccc3)nc2-c2cccs2)N1CC1CCCO1` (stereo not drawn) as the molecule, how does the “hERG current change (%, negative = inhibition) at 10uM” value read?
Answer: -17.9%

Question: `COc1ccc2c(-c3ccccc3)cc(SCC(N)=O)nc2c1` was tested. Which “hERG current change (%, negative = inhibition) at 10uM” value did it give?
Answer: 4.04%

Question: For `Cn1c2ccccc2c2cnn(CC(=O)O)c(=O)c21`, which “hERG current change (%, negative = inhibition) at 10uM” value is on record?
Answer: 13.4%

Question: With `CC(NC(=O)c1ccc(Cl)c(Cl)c1)c1ccc(-c2ccccc2)cc1` (stereo not drawn) as the molecule, how does the “hERG current change (%, negative = inhibition) at 10uM” value read?
Answer: 17.6%

Question: How did the “hERG current change (%, negative = inhibition) at 10uM” value turn out when `COc1ccccc1N1CCN(C2CCCN(C(=O)c3csc(C)n3)C2)CC1` (stereo not drawn) was run?
Answer: -9.96%

Question: How did the “hERG current change (%, negative = inhibition) at 10uM” value turn out when `N#Cc1nc(-c2ccco2)oc1NCCCn1ccnc1` was run?
Answer: -19.7%

Question: Which “hERG current change (%, negative = inhibition) at 10uM” value does the source give for `Cc1ccc(NS(=O)(=O)c2ccc(CCC(=O)NCc3ccccn3)cc2)cc1` here?
Answer: 13%

Question: `O=C(Oc1ccc2c(c1)O/C(=C\c1ccncc1)C2=O)c1cccs1` was tested. Which “hERG current change (%, negative = inhibition) at 10uM” value did it give?
Answer: -2.41%

Question: `O=C(Nc1ccc(Cl)c(Cl)c1)c1ccccc1NC(=O)C1CC=CCC1C(=O)O` (stereo not drawn) was tested. Which “hERG current change (%, negative = inhibition) at 10uM” value did it give?
Answer: 1.71%

Question: With `O=C(/C=C/c1ccc(Cl)c(Cl)c1)NCCCn1ccnc1` as the molecule, how does the “hERG current change (%, negative = inhibition) at 10uM” value read?
Answer: -41.7%

Question: `COc1ccc(C(=O)NCc2nnc(SCC(=O)Nc3nnc(C)s3)o2)cc1OC` was tested. Which “hERG current change (%, negative = inhibition) at 10uM” value did it give?
Answer: -5.52%

Question: With `CCN1CCN(S(=O)(=O)c2ccc(Cl)c(C(=O)NCc3ccco3)c2)CC1` as the molecule, how does the “hERG current change (%, negative = inhibition) at 10uM” value read?
Answer: -1.33%

Question: `Cc1ccc(C)c(NC(=S)NNc2ccc(F)cc2F)c1` was tested. Which “hERG current change (%, negative = inhibition) at 10uM” value did it give?
Answer: 5.57%

Question: With `CCc1c(C)nc(N2CCN(Cc3ccc4c(c3)OCO4)CC2)[nH]c1=O` as the molecule, how does the “hERG current change (%, negative = inhibition) at 10uM” value read?
Answer: 5.17%

Question: Which “hERG current change (%, negative = inhibition) at 10uM” value does the source give for `Cc1cccc(NC(=O)c2cc(=O)c3ccccc3o2)n1` here?
Answer: -17.6%

Question: With `O=C(Nc1ccccc1)Nc1nc(-c2ccc(Cl)cc2)cs1` as the molecule, how does the “hERG current change (%, negative = inhibition) at 10uM” value read?
Answer: 20.5%

Question: How did the “hERG current change (%, negative = inhibition) at 10uM” value turn out when `C#CCOCCOCCOCCNc1nc(N2CCOCC2)nc(N2CCN(C(=O)CCCCCCCCCCNC(=O)[C@H](CO)n3cc(CCCSC)nn3)CC2)n1` was run?
Answer: -0.214%

Question: How did the “hERG current change (%, negative = inhibition) at 10uM” value turn out when `CN(CC(=O)Nc1ccc(Cl)cc1)C(=O)CCc1ccccc1` was run?
Answer: 5.55%

Question: Which “hERG current change (%, negative = inhibition) at 10uM” value does the source give for `O=C(COc1ccccc1Cc1ccccc1)Nc1cccc(S(=O)(=O)N2CCOCC2)c1` here?
Answer: -3.73%

Question: Which “hERG current change (%, negative = inhibition) at 10uM” value does the source give for `CCCCc1nc2cc(C(=O)N3CCCC(OCCC)C3)ccc2o1` (stereo not drawn) here?
Answer: 9.53%

Question: With `CC(C)NC(=O)c1ccc(CN2CCC(Cc3ccccc3)CC2)cc1` as the molecule, how does the “hERG current change (%, negative = inhibition) at 10uM” value read?
Answer: -37.2%

Question: For `CC(=O)c1ccc([N+](=O)[O-])cc1`, which “hERG current change (%, negative = inhibition) at 10uM” value is on record?
Answer: 15.7%

Question: `Cc1cc2nc(C3CCCN(C(=O)NCc4ccccc4)C3)[nH]c2cc1C` (stereo not drawn) was tested. Which “hERG current change (%, negative = inhibition) at 10uM” value did it give?
Answer: -45.7%

Question: Which “hERG current change (%, negative = inhibition) at 10uM” value does the source give for `Cc1ccc(N2CN(CCc3ccccc3)CNC2=S)cc1` here?
Answer: 11.6%

Question: How did the “hERG current change (%, negative = inhibition) at 10uM” value turn out when `Cc1sc(N)nc1-c1ccc(Oc2ccccc2)cc1` was run?
Answer: 5.92%

Question: For `COc1cc2[nH]c(=O)n(CCCCCC(=O)N3CC=C(c4ccccc4)CC3)c(=O)c2cc1OC`, which “hERG current change (%, negative = inhibition) at 10uM” value is on record?
Answer: -20%

Question: With `Cc1cc([N+](=O)[O-])nn1CCCC(=O)Nc1cccnc1Cl` as the molecule, how does the “hERG current change (%, negative = inhibition) at 10uM” value read?
Answer: 11.4%

Question: How did the “hERG current change (%, negative = inhibition) at 10uM” value turn out when `CC(=O)N(c1cccc(Cl)c1)c1nc(C)cc(C)c1C#N` was run?
Answer: 9.28%

Question: Which “hERG current change (%, negative = inhibition) at 10uM” value does the source give for `Cc1cc(C)nc(SCCS(=O)Cc2ccc(Cl)cc2)n1` (stereo not drawn) here?
Answer: 2.89%

Question: How did the “hERG current change (%, negative = inhibition) at 10uM” value turn out when `O=C(COC(=O)c1ccccc1Cl)Nc1nccs1` was run?
Answer: 13.9%

Question: Which “hERG current change (%, negative = inhibition) at 10uM” value does the source give for `O=C(CSc1nc2ccccc2o1)Nc1cc(C(F)(F)F)ccc1N1CCOCC1` here?
Answer: -7.46%

Question: How did the “hERG current change (%, negative = inhibition) at 10uM” value turn out when `Cc1ccc(-c2csc(C(C#N)=C3CCCC3)n2)cc1` was run?
Answer: 4.11%

Question: Which “hERG current change (%, negative = inhibition) at 10uM” value does the source give for `OCCNc1c2c(nc3ccccc13)CCCC2` here?
Answer: -39%

Question: For `O=C(Nc1cccc(NC(=O)c2ccc([N+](=O)[O-])o2)c1)c1ccco1`, which “hERG current change (%, negative = inhibition) at 10uM” value is on record?
Answer: 9.11%

Question: For `C=CCC(=O)NC1CC(C)(C)Cc2c1cnn2-c1ccc(C)cc1` (stereo not drawn), which “hERG current change (%, negative = inhibition) at 10uM” value is on record?
Answer: -69.7%

Question: For `CCCn1c(NC(=O)C2CCN(C(=O)c3ccccc3C)CC2)nc2ccccc21`, which “hERG current change (%, negative = inhibition) at 10uM” value is on record?
Answer: -16%

Question: How did the “hERG current change (%, negative = inhibition) at 10uM” value turn out when `O=C(CSCc1nc2ccccc2[nH]1)Nc1ccccc1` was run?
Answer: 8.41%

Question: With `O=C(N1CCOCC1)C12CC3CC(C1)CC(C(=O)N1CCOCC1)(C3)C2` as the molecule, how does the “hERG current change (%, negative = inhibition) at 10uM” value read?
Answer: 2.89%

Question: `CCOC(=O)c1nn(-c2ccc(C)c(Cl)c2)c(=O)c(C#N)c1C` was tested. Which “hERG current change (%, negative = inhibition) at 10uM” value did it give?
Answer: 10.8%

Question: `COc1ccc(CN2CCNC(=O)C2CC(=O)NC2CCCCCCC2)cc1C` (stereo not drawn) was tested. Which “hERG current change (%, negative = inhibition) at 10uM” value did it give?
Answer: 15.8%

Question: For `Cc1ccc(S(=O)(=O)Nc2nc3ccccc3nc2NCC2CCCO2)c(C)c1` (stereo not drawn), which “hERG current change (%, negative = inhibition) at 10uM” value is on record?
Answer: 2.84%

Question: `COc1ccccc1N1CCN(CCCCOc2ccc(F)cc2)CC1.Cl` was tested. Which “hERG current change (%, negative = inhibition) at 10uM” value did it give?
Answer: -72.8%

Question: For `Cn1c(=O)oc2cc(C(=O)c3ccccc3)ccc21`, which “hERG current change (%, negative = inhibition) at 10uM” value is on record?
Answer: -7.43%

Question: Which “hERG current change (%, negative = inhibition) at 10uM” value does the source give for `COc1cccc(C(=O)NC2CCCc3ccccc32)c1` (stereo not drawn) here?
Answer: 2.71%

Question: `O=S(=O)(Nc1cccc(-c2ccc(N3CCCCCC3)nn2)c1)c1ccc(F)cc1` was tested. Which “hERG current change (%, negative = inhibition) at 10uM” value did it give?
Answer: 13.7%

Question: Which “hERG current change (%, negative = inhibition) at 10uM” value does the source give for `Cl.O=C(NCCCN1CCOCC1)c1coc2ccccc2c1=O` here?
Answer: -0.609%

Question: With `COCCCNC(=O)CCc1nnc(Cc2ccc(-c3ccccc3)cc2)o1` as the molecule, how does the “hERG current change (%, negative = inhibition) at 10uM” value read?
Answer: 3.02%

Question: Which “hERG current change (%, negative = inhibition) at 10uM” value does the source give for `O=C(NCC(c1ccco1)N1CCc2ccccc2C1)c1cccc(Br)c1` (stereo not drawn) here?
Answer: -5.34%

Question: With `CCOC(=O)C1CCCN(C(=S)NC(=O)/C=C/c2ccc(F)cc2)C1` (stereo not drawn) as the molecule, how does the “hERG current change (%, negative = inhibition) at 10uM” value read?
Answer: 0.886%

Question: Which “hERG current change (%, negative = inhibition) at 10uM” value does the source give for `CCCCn1c(-c2ccncc2)nc2c1c(=O)[nH]c(=O)n2CC(C)C` here?
Answer: 5.44%

Question: With `COc1ccc(N=C2SC(CC(=O)Nc3ccc(OC)cc3OC)C(=O)N2C)cc1` (stereo not drawn) as the molecule, how does the “hERG current change (%, negative = inhibition) at 10uM” value read?
Answer: -10.5%

Question: For `COc1cccc(C(C#N)N2CCCCC2)c1O` (stereo not drawn), which “hERG current change (%, negative = inhibition) at 10uM” value is on record?
Answer: -2.29%

Question: How did the “hERG current change (%, negative = inhibition) at 10uM” value turn out when `CCCC(=O)N(C)C1=Nc2ccc(Cl)cc2C(c2ccccc2)=[N+]([O-])C1` was run?
Answer: 9.83%

Question: For `CC(=O)Nc1ccc(C(=O)OCC(=O)N(c2ccccc2)C2CCS(=O)(=O)C2)cc1` (stereo not drawn), which “hERG current change (%, negative = inhibition) at 10uM” value is on record?
Answer: 9.51%

Question: `COc1ccc2oc(C)c(C(=O)NN)c2c1` was tested. Which “hERG current change (%, negative = inhibition) at 10uM” value did it give?
Answer: -1.4%
